# The whole screen tested about 110,000 compounds, of which about 230 (0.21%) showed an effect of 50% or more. The list shows a part of the results.
# Molecular target: DPAP1 (Plasmodium falciparum, UniProt Q8IIJ9)
# Experiment: primary screen, percent inhibition; read by cleavage of a fluorogenic dipeptide substrate; higher = more effect of the substance
# Design: species or system P. falciparum D10 trophozoite lysates; single well
# 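Further: 30 min substrate incubation versus DMSO and 10 µM JCP410 controls.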
# DPAP1, sequence (Q8IIJ9 whole entry, looked up): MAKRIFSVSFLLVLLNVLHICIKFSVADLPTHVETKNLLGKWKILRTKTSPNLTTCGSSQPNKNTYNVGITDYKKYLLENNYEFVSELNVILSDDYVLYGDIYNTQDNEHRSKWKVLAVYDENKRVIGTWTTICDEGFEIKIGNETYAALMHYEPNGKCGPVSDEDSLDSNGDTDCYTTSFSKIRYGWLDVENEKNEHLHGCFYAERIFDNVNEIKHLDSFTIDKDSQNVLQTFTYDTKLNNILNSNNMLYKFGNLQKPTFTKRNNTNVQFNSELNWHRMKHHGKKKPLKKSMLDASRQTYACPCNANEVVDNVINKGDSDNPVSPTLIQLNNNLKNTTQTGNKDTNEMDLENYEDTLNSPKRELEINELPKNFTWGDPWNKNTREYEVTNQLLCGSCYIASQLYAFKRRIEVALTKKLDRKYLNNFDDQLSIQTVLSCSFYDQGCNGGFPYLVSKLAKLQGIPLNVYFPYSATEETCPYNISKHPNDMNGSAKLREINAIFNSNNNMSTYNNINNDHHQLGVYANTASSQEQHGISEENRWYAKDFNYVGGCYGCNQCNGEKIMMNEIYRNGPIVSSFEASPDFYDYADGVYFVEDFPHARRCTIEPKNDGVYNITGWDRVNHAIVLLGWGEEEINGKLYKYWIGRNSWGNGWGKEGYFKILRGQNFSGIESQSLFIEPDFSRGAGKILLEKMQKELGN
row,SMILES,% Inhibition @ 10 uM
1,CCOc1ccc(NC(=O)CCN2CCN(c3ccccc3)CC2)cc1,-3.72%
2,Cc1ccc(C(=O)NC(C)c2ccc(C)c(C)c2)s1 (stereo not drawn),-2.74%
3,COc1ccccc1CNC(=O)/C=C/c1ccccc1,-3.26%
4,O=C(Nc1cc2nn(-c3ccccc3)nc2cc1Cl)c1ccco1,2.23%
5,Cc1ccc(CN(Cc2ccccc2)C(=S)NCC(=O)NCc2cccnc2)o1,8.9%
6,N#Cc1cc2c(ccc3ccccc32)oc1=O,0.0345%
7,COC(=O)c1c(NC(=O)Cc2coc3cc(C)cc(C)c23)sc(C(C)=O)c1C,-2.4%
8,Clc1nc(-c2ccccc2)ncc1Oc1ccccc1,3.53%
9,CCOC(=O)C1=C(NC(=O)c2ccc(C)cc2)S/C(=C\c2ccc(CC)s2)C1=O,-3.74%
10,C=CCNC(=O)c1cc(-c2ccc(OC)cc2)nc2ccc(C(C)C)cc12,-4.06%
11,Cc1cccc(CN2CCC(CNC(=O)c3cc4c(C)nc5ccccc5c4o3)CC2)c1,-5.25%
12,COc1ccccc1C1CC(=O)NC(SCc2ccccc2)=C1C#N (stereo not drawn),-6.37%
13,O=C(NC1CC1)c1ccc(CSc2nc3ccncc3n2Cc2ccc(F)cc2)cc1,1.03%
14,COc1cc(OC)cc(C(=O)Nc2ccc(NC(=O)c3cc(OC)cc(OC)c3)cc2)c1,-3.18%
15,O=C(NC1CCCC1)c1ccc(-c2ccccc2)s1,-0.447%
16,CCCC(NC(=O)Nc1cn(CC(C)C)c(=O)c2ccccc12)c1cccs1 (stereo not drawn),-5.38%
17,Cc1c2cnn(CC(=O)NCC3CCCO3)c(=O)c2c(C)n1Cc1ccc(Cl)cc1 (stereo not drawn),-0.447%
18,O=C(NC1(C(F)(F)F)NC(=O)N(c2ccc(F)cc2)C1=O)c1ccccc1F (stereo not drawn),0.475%
19,Cc1cc(C)cc(NC(=O)Nc2ccc(Cl)cc2)c1,2.6%
20,CC(C)C[C@H](NC(=O)OC1CCOc2ccccc21)C(=O)NCC#N (stereo partly drawn),1.71%
21,COc1cccc(OCCCCN2CCOCC2)c1,3.35%
22,Fc1ccc(N2CCN(Cc3cccnc3)CC2)cc1,0.605%
23,Nc1n[nH]c(-c2ccc(Br)cc2)n1,-0.999%
24,O=C(O)/C=C\C(=O)NCCc1ccncc1,-2.5%
25,Cc1cc(C)n2nc(SCC(=O)N(C)Cc3ccccc3)nc2n1,2.57%
26,COc1ccc(CCNc2oc(COc3ccc(Cl)cc3)nc2C#N)cc1,-3.77%

row,SMILES,% Inhibition @ 10 uM
1,c1cc2c[nH]nc2cc1NC1CCSC1 (stereo not drawn),-1.82%
2,N#CCN1CCn2c3c(c4cc(C5CCCCC5)ccc42)CCCC31 (stereo not drawn),1.26%
3,COC(=O)/C=c1\sc2n(c1=O)CCN=2,-1.48%
4,O=C(CN1C(=O)c2cccc3cccc(c23)C1=O)NCCO,-4.26%
5,Cc1ccc(SCCNC(=O)CN(c2cc(C(F)(F)F)ccc2Cl)S(C)(=O)=O)cc1,2.44%
6,O=C1C2C(c3ccccc3)OC3(C(=O)c4ccccc4C3=O)C2C(=O)N1c1ccc(Cl)cc1 (stereo not drawn),6.52%
7,Cc1ccc2c(Cl)c(C(=O)Nc3ccc(N(C)C)cc3)sc2c1,4.52%
8,COc1ccc(NC(=O)C23CC4CC(C2)CC(n2cnc(Br)n2)(C4)C3)cc1Cl,-11.6%
9,COc1ccc(CNC(=O)c2cc(=O)c3cc(C)c(C)cc3o2)cc1,1.9%
10,Cc1ccc2c(Cl)c(C(=O)Nc3nc(C)cs3)sc2c1,-2.45%
11,Cc1ccc(-c2c(N3CCN(C)CC3)c(=O)c2=O)cc1,-1.11%
12,COc1cccc(OC)c1C(=O)Nc1ccc(C(=O)O)cc1,3.9%
13,O=C(c1ccc(NS(=O)(=O)c2cccc(C(F)(F)F)c2)cc1)N1CCCCCC1,-1.57%
14,N=C1SCCN1CC(=O)c1ccccc1,-8.3%
15,O=C(Nc1ccccc1NC(=O)c1cccnc1)c1cccnc1,0.389%
16,O=C(O)C1CCN(c2cnccn2)CC1,-3.08%
17,Cc1nn(-c2ccc(Br)cc2)c(O)c1/C=N/c1ccc(S(=O)(=O)N(C)C)cc1,2.08%
18,NC(=O)c1cc(S(=O)(=O)NCc2cccnc2)cs1,-2.26%
19,CCCCc1ccc(NC(=O)CC(C)=O)cc1,-2.51%
20,CS(=O)(=O)C1=NN2C(=N)/C(=C\c3cn(Cc4ccccc4)c4ccccc34)C(=O)N=C2S1,-1.58%
21,Cc1cc(C)nc(C(=N)Nc2nc(-c3ccccn3)cc3ccccc23)n1,-0.994%
22,O=C(CC1CCC1)Nc1ccc2c(c1)oc1ccccc12,17.5%
23,Cc1cc(C(=O)NC2CCN(Cc3ccccc3)CC2)c2c(C)nn(-c3cccc(Cl)c3C)c2n1,2.52%
24,Cc1cc2nc(NC(=O)CCCC(=O)O)sc2cc1C,-5.07%
25,Cc1nn(C(C)C(=O)N2CCN(C)CC2)c(=O)c2nn(-c3ccccc3)c(C)c12 (stereo not drawn),-7.76%

# From publication PMC6919601, “Identification of Plasmodium dipeptidyl aminopeptidase allosteric inhibitors by high throughput screening” (PLoS ONE, 2019)
